# Assay results published in the supplement of paper PMC8728848.
# Some of the results follow.
# B1: CGL (Crenomytilus grayanus), H2FH31 (protein)
# chain: MTTFLIKHKASGKFLHPYGGSSNPANNTKLVLHSDIHERMYFQFDVVDERWGYIKHVASGKIVHPYGGQANPPNETNMVLHQDRHDRALFAMDFFNDNIMHKGGKYIHPKGGSPNPPNNTETVIHGDKHAAMEFIFVSPKNKDKRVLVYA
# What was measured:
# Assay in all cases: glycan array binding signal (z-score within array); higher = stronger binding
# Settings in all cases: glycan notation: IUPAC condensed, linker removed
# Gal(a1-6)Glc = molecular target: Gal(a1-6)Glc
# Outline: (§1)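 Arrays were curated from the Consortium for Functional Glycomics database, 3228 in total, and kept only where the protein sequence was available. Binding is expressed as a within-array Z-score. This score was averaged across arrays of the same protein sequence at different concentrations or buffers and across linkers, and negative values can be read as non-binding.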
# Gal(b1-2)Gal = molecular target: Gal(b1-2)Gal
# Outline: as §1
# Gal(b1-3)Gal = molecular target: Gal(b1-3)Gal
# Outline: as §1
# Gal(b1-3)Gal(b1-4)GlcNAc = molecular target: Gal(b1-3)Gal(b1-4)GlcNAc
# Outline: as §1
# Gal(b1-3)GalNAc = molecular target: Gal(b1-3)GalNAc
# Outline: as §1
# [1] = molecular target: Gal(b1-3)GalNAc(a1-3)[Fuc(a1-2)]Gal(b1-4)Glc
# Outline: as §1
# [2] = molecular target: Gal(b1-3)GalNAc(a1-3)[Fuc(a1-2)]Gal(b1-4)GlcNAc
# Outline: as §1
# Gal(b1-3)GalNAc(b1-3)Gal = molecular target: Gal(b1-3)GalNAc(b1-3)Gal
# Outline: as §1
# [3] = molecular target: Gal(b1-3)GalNAc(b1-3)Gal(a1-4)Gal(b1-4)Glc
# Outline: as §1
# [4] = molecular target: Gal(b1-3)GalNAc(b1-4)Gal(b1-4)Glc
# Outline: as §1
# [5] = molecular target: Gal(b1-3)GalNAc(b1-4)[Neu5Ac(a2-3)]Gal(b1-4)Glc
# Outline: as §1
# Gal(b1-3)GlcNAc = molecular target: Gal(b1-3)GlcNAc
# Outline: as §1
# [6] = molecular target: Gal(b1-3)GlcNAc(a1-3)Gal(b1-4)GlcNAc
# Outline: as §1
# [7] = molecular target: Gal(b1-3)GlcNAc(a1-6)Gal(b1-4)GlcNAc
# Outline: as §1
# Gal(b1-3)GlcNAc(b1-2)Man = molecular target: Gal(b1-3)GlcNAc(b1-2)Man
# Outline: as §1
# [8] = molecular target: Gal(b1-3)GlcNAc(b1-2)Man(a1-3)[Gal(b1-3)GlcNAc(b1-2)Man(a1-6)]Man(b1-4)GlcNAc(b1-4)GlcNAc
# Outline: as §1
# [9] = molecular target: Gal(b1-3)GlcNAc(b1-2)Man(a1-3)[Gal(b1-3)GlcNAc(b1-2)Man(a1-6)]Man(b1-4)GlcNAc(b1-4)[Fuc(a1-6)]GlcNAc
# Outline: as §1
# [10] = molecular target: Gal(b1-3)GlcNAc(b1-2)Man(a1-3)[GlcNAc(b1-4)][Gal(b1-3)GlcNAc(b1-2)Man(a1-6)]Man(b1-4)GlcNAc(b1-4)GlcNAc
# Outline: as §1
# [11] = molecular target: Gal(b1-3)GlcNAc(b1-2)[Gal(b1-3)GlcNAc(b1-6)]Man(a1-6)[Gal(b1-3)GlcNAc(b1-2)Man(a1-3)]Man(b1-4)GlcNAc(b1-4)GlcNAc
# Outline: as §1
# [12] = molecular target: Gal(b1-3)GlcNAc(b1-3)Gal(b1-3)GlcNAc
# Outline: as §1
# [13] = molecular target: Gal(b1-3)GlcNAc(b1-3)Gal(b1-4)Glc
# Outline: as §1
# [14] = molecular target: Gal(b1-3)GlcNAc(b1-3)Gal(b1-4)GlcNAc
# Outline: as §1
# [15] = molecular target: Gal(b1-3)GlcNAc(b1-3)Gal(b1-4)GlcNAc(b1-2)Man(a1-3)[Gal(b1-3)GlcNAc(b1-3)Gal(b1-4)GlcNAc(b1-2)Man(a1-6)]Man(b1-4)GlcNAc(b1-4)GlcNAc
# Outline: as §1
# [16] = molecular target: Gal(b1-3)GlcNAc(b1-3)Gal(b1-4)GlcNAc(b1-2)[Gal(b1-3)GlcNAc(b1-3)Gal(b1-4)GlcNAc(b1-6)]Man(a1-6)[Gal(b1-3)GlcNAc(b1-3)Gal(b1-4)GlcNAc(b1-2)Man(a1-3)]Man(b1-4)GlcNAc(b1-4)[Fuc(a1-6)]GlcNAc
# Outline: as §1
# [17] = molecular target: Gal(b1-3)GlcNAc(b1-3)Gal(b1-4)GlcNAc(b1-3)Gal(b1-4)GlcNAc(b1-2)[Gal(b1-3)GlcNAc(b1-3)Gal(b1-4)GlcNAc(b1-3)Gal(b1-4)GlcNAc(b1-6)]Man(a1-6)[Gal(b1-3)GlcNAc(b1-3)Gal(b1-4)GlcNAc(b1-3)Gal(b1-4)GlcNAc(b1-2)Man(a1-3)]Man(b1-4)GlcNAc(b1-4)[Fuc(a1-6)]GlcNAc
# Outline: as §1
# [18] = molecular target: Gal(b1-3)GlcNAc(b1-3)Gal(b1-4)GlcNAc(b1-6)[Gal(b1-3)GlcNAc(b1-3)]Gal(b1-4)Glc
# Outline: as §1
# [19] = molecular target: Gal(b1-3)GlcNAc(b1-3)Gal(b1-4)[Fuc(a1-3)]GlcNAc
# Outline: as §1
# [20] = molecular target: Gal(b1-3)GlcNAc(b1-3)Gal(b1-4)[Fuc(a1-3)]GlcNAc(b1-6)[Gal(b1-3)GlcNAc(b1-3)]Gal(b1-4)Glc
# Outline: as §1
# [21] = molecular target: Gal(b1-3)GlcNAc(b1-3)GalNAc
# Outline: as §1
# [22] = molecular target: Gal(b1-3)GlcNAc(b1-6)Gal(b1-4)GlcNAc
# Outline: as §1
# [23] = molecular target: Gal(b1-3)GlcNAc(b1-6)GalNAc
# Outline: as §1
# [24] = molecular target: Gal(b1-3)GlcNAc(b1-6)[Gal(b1-3)]GalNAc
# Outline: as §1
# Gal(b1-3)GlcNAc6S = molecular target: Gal(b1-3)GlcNAc6S
# Outline: as §1
# [25] = molecular target: Gal(b1-3)[Fuc(a1-4)]GlcNAc
# Outline: as §1
# [26] = molecular target: Gal(b1-3)[Fuc(a1-4)]GlcNAc(b1-2)Man
# Outline: as §1
# [27] = molecular target: Gal(b1-3)[Fuc(a1-4)]GlcNAc(b1-2)Man(a1-3)[Gal(b1-3)[Fuc(a1-4)]GlcNAc(b1-2)Man(a1-6)]Man(b1-4)GlcNAc(b1-4)[Fuc(a1-6)]GlcNAc
# Outline: as §1
# [28] = molecular target: Gal(b1-3)[Fuc(a1-4)]GlcNAc(b1-3)Gal(b1-3)[Fuc(a1-4)]GlcNAc
# Outline: as §1
# [29] = molecular target: Gal(b1-3)[Fuc(a1-4)]GlcNAc(b1-3)Gal(b1-4)[Fuc(a1-3)]GlcNAc
# Outline: as §1
# [30] = molecular target: Gal(b1-3)[Fuc(a1-4)]GlcNAc(b1-6)GalNAc
# Outline: as §1
# [31] = molecular target: Gal(b1-3)[GlcNAc(b1-6)]GalNAc
# Outline: as §1
# [32] = molecular target: Gal(b1-3)[Neu5Ac(a2-6)]GalNAc
# Outline: as §1
# [33] = molecular target: Gal(b1-3)[Neu5Ac(a2-6)]GlcNAc(b1-4)Gal(b1-4)Glc
# Outline: as §1
# [34] = molecular target: Gal(b1-3)[Neu5Ac(b2-6)]GalNAc
# Outline: as §1
# Gal(b1-4)Gal = molecular target: Gal(b1-4)Gal
# Outline: as §1
# [35] = molecular target: Gal(b1-4)GalNAc(a1-3)[Fuc(a1-2)]Gal(b1-4)GlcNAc
# Outline: as §1
binder,measurement,setting,value
B1,glycan array binding signal (z-score),Gal(a1-6)Glc,-0.041
same,glycan array binding signal (z-score),Gal(b1-2)Gal,0.358
same,glycan array binding signal (z-score),Gal(b1-3)Gal,-0.355
same,glycan array binding signal (z-score),Gal(b1-3)Gal(b1-4)GlcNAc,-0.077
same,glycan array binding signal (z-score),Gal(b1-3)GalNAc,-0.397
same,glycan array binding signal (z-score),[1],-0.352
same,glycan array binding signal (z-score),[2],-0.341
same,glycan array binding signal (z-score),Gal(b1-3)GalNAc(b1-3)Gal,-0.324
same,glycan array binding signal (z-score),[3],-0.269
same,glycan array binding signal (z-score),[4],-0.282
same,glycan array binding signal (z-score),[5],-0.242
same,glycan array binding signal (z-score),Gal(b1-3)GlcNAc,0.242
same,glycan array binding signal (z-score),[6],0.396
same,glycan array binding signal (z-score),[7],0.803
same,glycan array binding signal (z-score),Gal(b1-3)GlcNAc(b1-2)Man,0.117
same,glycan array binding signal (z-score),[8],1.39
same,glycan array binding signal (z-score),[9],0.52
same,glycan array binding signal (z-score),[10],0.739
same,glycan array binding signal (z-score),[11],1.87
same,glycan array binding signal (z-score),[12],0.665
same,glycan array binding signal (z-score),[13],0.248
same,glycan array binding signal (z-score),[14],0.369
same,glycan array binding signal (z-score),[15],2
same,glycan array binding signal (z-score),[16],1.8
same,glycan array binding signal (z-score),[17],2.2
same,glycan array binding signal (z-score),[18],2.44
same,glycan array binding signal (z-score),[19],0.29
same,glycan array binding signal (z-score),[20],0.813
same,glycan array binding signal (z-score),[21],-0.089
same,glycan array binding signal (z-score),[22],0.949
same,glycan array binding signal (z-score),[23],-0.031
same,glycan array binding signal (z-score),[24],0.396
same,glycan array binding signal (z-score),Gal(b1-3)GlcNAc6S,0.231
same,glycan array binding signal (z-score),[25],-0.359
same,glycan array binding signal (z-score),[26],-0.336
same,glycan array binding signal (z-score),[27],-0.341
same,glycan array binding signal (z-score),[28],-0.406
same,glycan array binding signal (z-score),[29],-0.381
same,glycan array binding signal (z-score),[30],-0.408
same,glycan array binding signal (z-score),[31],-0.34
same,glycan array binding signal (z-score),[32],-0.398
same,glycan array binding signal (z-score),[33],-0.148
same,glycan array binding signal (z-score),[34],-0.38
same,glycan array binding signal (z-score),Gal(b1-4)Gal,-0.367
same,glycan array binding signal (z-score),[35],0.737
